± gives the standard deviation of the averaged measurements. Laboratory Escherichia coli strains with one amino-acid change in an essential protein, pooled on minimal glucose agar with carbenicillin or gentamicin at twice the control MIC (plus kanamycin and chloramphenicol for the plasmids), 48 h. Fold change of barcode share against drug-free plates; higher = less susceptible. Active = above 20 in both replicates (the paper's putatively resistant). '<' = one read or none on drug, '>' = one read or none on a drug-free plate. Shares are relative, so most strains fall below 1 when a few take over. Listed are strains with at least 15 reads on both drug-free plates, and hits; most hits rest on fewer reference reads. Replicate rank correlation about 0.5. Edits are read from barcodes.
B1: purL; numbered along this chain (parent)
chain: MMEILRGSPALSAFRINKLLARFQAARLPVHNIYAEYVHFADLNAPLNDDEHAQLERLLKYGPALASHAPQGKLLLVTPRPGTISPWSSKATDIAHNCGLQQVNRLERGVAYYIEAGTLTNEQWQQVTAELHDRMMETVFFALDDAEQLFAHHQPTPVTSVDLLGQGRQALIDANLRLGLALAEDEIDYLQDAFTKLGRNPNDIELYMFAQANSEHCRHKIFNADWVIDGEQQPKSLFKMIKNTFETTPDHVLSAYKDNAAVMEGSEVGRYFADHETGRYDFHQEPAHILMKVETHNHPTAISPWPGAATGSGGEIRDEGATGRGAKPKAGLVGFSVSNLRIPGFEQPWEEDFGKPERIVTALDIMTEGPLGGAAFNNEFGRPALNGYFRTYEEKVNSHNGEELRGYHKPIMLAGGIGNIRADHVQKGEINVGAKLVVLGGPAMNIGLGGGAASSMASGQSDADLDFASVQRDNPEMERRCQEVIDRCWQLGDANPILFIHDVGAGGLSNAMPELVSDGGRGGKFELREILSDEPGMSPLEIWCNESQERYVLAVAADQLPLFDELCKRERAPYAVIGEATEELHLSLHDRHFDNQPIDLPLDVLLGKTPKMTRDVQTLKAKGDALAREGITIADAVKRVLHLPTVAEKTFLVTIGDRSVTGMVARDQMVGPWQVPVANCAVTTASLDSYYGEAMAIGERAPVALLDFAASARLAVGEALTNIAATQIGDIKRIKLSANWMAAAGHPGEDAGLYEAVKAVGEELCPALGLTIPVGKDSMSMKTRWQEGNEEREMTSPLSLVISAFARVEDVRHTITPQLSTEDNALLLIDLGKGNNALGATALAQVYRQLGDKPADVRDVAQLKGFYDAIQALVAQRKLLAYHDRSDGGLLVTLAEMAFAGHCGIDADIATLGDDRLAALFNEELGAVIQVRAADREAVESVLAQHGLADCVHYVGQAVSGDRFVITANGQTVFSESRTTLRVWWAETTWQMQRLRDNPECADQEHQAKSNDADPGLNVKLSFDINEDVAAPYIATGARPKVAVLREQGVNSHVEMAAAFHRAGFDAIDVHMSDLLTGRTGLEDFHALVACGGFSYGDVLGAGEGWAKSILFNDRVRDEFATFFHRPQTLALGVCNGCQMMSNLRELIPGSELWPRFVRNTSDRFEARFSLVEVTQSPSLLLQGMVGSQMPIAVSHGEGRVEVRDAAHLAALESKGLVALRYVDNFGKVTETYPANPNGSPNGITAVTTESGRVTIMMPHPERVFRTVSNSWHPENWGEDGPWMRIFRNARKQLG
B2: argS; numbered along this chain (parent)
chain: MNIQALLSEKVRQAMIAAGAPADCEPQVRQSAKVQFGDYQANGMMAVAKKLGMAPRQLAEQVLTHLDLNGIASKVEIAGPGFINIFLDPAFLAEHVQQALASDRLGVATPEKQTIVVDYSAPNVAKEMHVGHLRSTIIGDAAVRTLEFLGHKVIRANHVGDWGTQFGMLIAWLEKQQQENAGEMELADLEGFYRDAKKHYDEDEEFAERARNYVVKLQSGDEYFREMWRKLVDITMTQNQITYDRLNVTLTRDDVMGESLYNPMLPGIVADLKAKGLAVESEGATVVFLDEFKNKEGEPMGVIIQKKDGGYLYTTTDIACAKYRYETLHADRVLYYIDSRQHQHLMQAWAIVRKAGYVPESVPLEHHMFGMMLGKDGKPFKTRAGGTVKLADLLDEALERARRLVAEKNPDMPADELEKLANAVGIGAVKYADLSKNRTTDYIFDWDNMLAFEGNTAPYMQYAYTRVLSVFRKAEIDEEQLAAAPVIIREDREAQLAARLLQFEETLTVVAREGTPHVMCAYLYDLAGLFSGFYEHCPILSAENEEVRNSRLKLAQLTAKTLKLGLDTLGIETVERM

Variants of: B1
Assay: barcode share on antibiotic plates over drug-free plates; higher = less susceptible
Settings: with Escherichia coli (laboratory strain); antibiotic: carbenicillin; 2× MIC (3.1 µg/mL)
Procedure: (§1)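 A pool of E. coli strains, each edited to carry one amino-acid change in an essential protein, was grown for 48 h on minimal glucose agar with or without antibiotic; strain barcodes were sequenced; mean of two replicates.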

| Variant | fold change of barcode share |
| --- | --- |
| M512Q | 1.12 ± 0.02 |
| M512P | 1.26 ± 0.029 |
| M512A | 1.4 ± 0.55 |
| M512D | 1.34 ± 0.09 |

Same assay, conditions: with Escherichia coli (laboratory strain); antibiotic: gentamicin; 2× MIC (MIC 0.45 µg/mL)

| Variant | fold change of barcode share |
| --- | --- |
| M512Q | 0.00764 ± 0.0041 |
| M512P | 0.0093 ± 0.0042 |
| M512A | 0.00859 ± 0.0038 |
| M512D | 0.0104 ± 0.0034 |

Variants of: B2
Assay: as above
Settings: with Escherichia coli (laboratory strain); antibiotic: carbenicillin; 2× MIC (3.1 µg/mL)
Procedure: as §1

| Variant | fold change of barcode share |
| --- | --- |
| V116Q | 0.247 ± 0.051 |
| V116A | 0.213 ± 0.032 |
| V116D | > 34.6 [active] |
| V116W | 0.545 ± 0.33 |
| V116P | 0.455 ± 0.0059 |
| L334Q | 0.298 ± 0.0073 |
| L334D | 0.358 ± 0.15 |
| L334P | 0.332 ± 0.037 |
| L334A | 0.222 ± 0.059 |
| L334W | 0.253 ± 0.038 |
| I85Q | 0.271 ± 0.11 |
| I85A | 0.265 ± 0.0084 |
| I85W | 0.231 ± 0.022 |
| F533A | 0.265 ± 0.014 |
| F533W | 0.212 ± 0.15 |
| V287A | 0.366 ± 0.038 |
| V117Q | 0.304 ± 0.011 |
| V117A | 0.35 ± 0.13 |
| F530A | 0.182 ± 0.14 |
| F530W | 0.233 ± 0.11 |
| M519W | 0.459 ± 0.27 |
| I83A | 0.395 ± 0.17 |
| I83P | 0.422 ± 0.011 |

Same assay, conditions: with Escherichia coli (laboratory strain); antibiotic: gentamicin; 2× MIC (MIC 0.45 µg/mL)

| Variant | fold change of barcode share |
| --- | --- |
| V116Q | 0.0127 ± 0.0054 |
| V116A | < 0.00297 |
| V116W | < 0.00347 |
| V116P | < 0.00635 |
| L334Q | 0.00361 ± 0.00037 |
| L334D | 0.0134 ± 0.015 |
| L334P | 0.218 ± 0.29 |
| L334A | < 0.00246 |
| L334W | < 0.00347 |
| I85Q | 0.0156 ± 0.0054 |
| I85A | < 0.00663 |
| I85W | < 0.0058 |
| F533A | 0.0133 ± 0.0057 |
| F533W | 0.0322 ± 0.027 |
| V287A | < 0.0167 |
| V287W | < 0.0177 |
| V287Q | < 0.0108 |
| V117A | 0.00942 ± 0.011 |
| F530A | < 0.0119 |
| F530W | < 0.00466 |
| M519W | < 0.0123 |
| I83A | < 0.00922 |
| I83P | < 0.00717 |

Source: the supplement of paper PMC11876631
